# PubChem BioAssay AID686979 (National Center for Advancing Translational Sciences (NCATS), 2013)
# The campaign covered roughly 420,000 compounds. About 50,000 (12%) were called active. The shares of active, inactive and inconclusive entries below differ from those in the screen. Calls come from the whole dose curve; as a rule, active = well fitted inhibition curve with a large enough effect; inconclusive = small, poorly fitted or top-dose-only effect; inactive = flat fitted curve, though single readings scatter. Potencies of inconclusive entries are left out as doubtful fits.
# Experiment: qHTS for Inhibitors of human tyrosyl-DNA phosphodiesterase 1 (TDP1): qHTS in cells in presence of CPT; note: nearly all actives have a fitted effect of over 55% in size
# Conditions: chicken DT40 Tdp1-/-;hTDP1 cells + 20 nM CPT, ATP luminescence, 48 h; activity change, negative = growth inhibition: at 46.2 µM (top of the series) unless noted
# How it was run: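 Chicken DT40 Tdp1-/- cells complemented with human TDP1, 400 cells/well, exposed to compounds plus 20 nM camptothecin for at least 48 h at 37 C; viability read as ATP content by CellTiter-Glo luminescence.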
# % is set by controls: 0 for no effect and ±100 for the full control effect; potency is the fitted concentration of half-maximal effect; tags give direction and shape of the fitted curve.
SMILES,Potency,"activity change, negative = growth inhibition"
O=C(Nc1cccc2ccccc12)N1CC=CCC1,"inconclusive [inhibitor, single point]",–
CCc1ccc(S(=O)(=O)NCC2(N3CCOCC3)CCCCC2)cc1,"inconclusive [inhibitor, single point]",–
CCCC(=O)NC(Nc1ccccc1OC)C(Cl)(Cl)Cl (stereo not drawn),"inconclusive [inhibitor, single point]",–
Cc1cccc(NC(=O)COC(=O)c2ccccn2)c1,–,inactive: 3.64%
CCOC(=O)c1sc(NC(=O)c2ccc(C)o2)nc1C,"inconclusive [inhibitor, partial curve, poor fit]",–
CC(C)c1ccc(C(=O)N(c2ccccn2)C(C)c2ccco2)cc1 (stereo not drawn),"inconclusive [inhibitor, single point]",–
COc1ccc(NC(=O)C2CCCN(c3nn4c(=O)cc(C)nc4s3)C2)c(OC)c1 (stereo not drawn),–,inactive: -17%
CCOC(=O)c1cc(-c2ccncc2)nc2c1c(C)nn2C,"inconclusive [inhibitor, single point]",–
CC(Oc1ccc(Cl)cc1)C(=O)N(C)CC(=O)Nc1ccc(N2CCOCC2)cc1 (stereo not drawn),–,inconclusive: -33.8% [inhibitor]
CCN(CC)CCN1C(=O)C(=O)/C(=C(/O)c2ccc(S(=O)(=O)N3CCOCC3)cc2)C1c1ccccc1 (stereo not drawn),–,inactive: 1.15%
Cc1cc2ccccc2n1CCNC(=O)C(C)Oc1ccccc1 (stereo not drawn),active: 23.1 µM,–
Cc1cccc(OCC(=O)Nc2ccc3c4c(cccc24)CC3)c1C,active: 11.6 µM,–
CCC(CC)C(=O)c1c[nH]c(C(=O)NC2CCCCCC2)c1,–,inactive: -7.81%
COc1ccc(S(=O)(=O)NC(=O)C2(C)CCN2C(=O)c2cccc(F)c2)cc1 (stereo not drawn),–,inactive: 2.59%
Nc1c(S(=O)(=O)c2cccs2)c2nc3ccccc3nc2n1Cc1cccs1,"inconclusive [inhibitor, single point]",–
COc1ccc(C)cc1-n1nnnc1SC(C)C(=O)NC1CCCC1 (stereo not drawn),"inconclusive [inhibitor, single point]",–
CCc1ccc(C(C(=O)NC2CCCCC2)N(C(=O)c2csnn2)C2CC2)cc1 (stereo not drawn),active: 16.4 µM,–
Cc1cc(Nc2cccc(Cl)c2)nc(-c2ccccc2O)n1,active: 29.1 µM,–
COc1ccc(NC(=O)c2ccc(Br)o2)c([N+](=O)[O-])c1,–,inactive: -13.6%
C=CCOC(=O)CCCCCCCC,–,inactive: 7.31%
Cc1ccc(-c2nc(C)sc2CC(=O)Nc2cccc(C)c2C)cc1,"inconclusive [inhibitor, partial curve]",–
CN(CCCNC(=O)Cn1cccc1C(=O)c1ccccc1)C1CCCCC1,–,inactive: -13.4%
O=C(NCC(c1cccs1)N1CCOCC1)C1CCN(S(=O)(=O)c2c(Cl)cccc2Cl)CC1 (stereo not drawn),"inconclusive [inhibitor, single point]",–
O=C(C1=C[C@H](C2CC2)C[C@H](OCc2ccc(CO)cc2)O1)N1CCN(Cc2ccccc2)CC1,"inconclusive [inhibitor, single point]",–

SMILES,Potency,"activity change, negative = growth inhibition"
Cc1ccc(S(=O)(=O)N(CC(=O)c2ccccc2)C(=O)N2CCN(C)CC2)cc1,–,inconclusive: -15.9% [inhibitor]
CC1CCN(CCc2nc3cc(NC(=O)COc4ccc(Cl)cc4)ccc3n2C)CC1,"inconclusive [inhibitor, single point]",–
COc1ccc(CCNC(=O)Cn2cc(S(=O)(=O)Cc3ccccc3F)c3ccccc32)cc1OC,"inconclusive [inhibitor, single point]",–
Cc1ccc(C(C(=O)NCc2ccc(F)cc2)N(CCCO)C(=O)C2COc3ccccc3O2)o1 (stereo not drawn),"inconclusive [inhibitor, single point]",–
CC(=O)Nc1ccc(Nc2nc(C)nc3c2oc2ccccc23)cc1,"inconclusive [inhibitor, single point]",–
N#CC(c1ccc(F)cc1)c1ccc(C(=O)c2ccccc2)cc1 (stereo not drawn),"inconclusive [inhibitor, single point]",–
CC1CCN(S(=O)(=O)c2ccc(N3CCCCS3(=O)=O)cc2)CC1,–,inactive: -17.3%
CC(NC(=O)COC(=O)c1cc([N+](=O)[O-])ccc1N1CCOCC1)c1ccc(F)cc1 (stereo not drawn),"inconclusive [inhibitor, single point]",–
O=C(CN1CCN(Cc2ccccc2)CC1)c1ccc(Br)cc1,"inconclusive [inhibitor, partial curve]",–
CCOc1ncccc1C(=O)N1CCCSC1=Nc1ccc(C(C)=O)cc1,–,inactive: -16.4%
O=C(CC1N=C2c3ccccc3N=C(SCC(=O)Nc3cccc(Cl)c3)N2C1=O)NCc1cccs1 (stereo not drawn),"inconclusive [inhibitor, single point]",–
O=C(Nc1ccccc1)OC1CCCCc2cccnc21 (stereo not drawn),–,inactive: 5.92%
CCOC(=O)c1c(/N=C/N(C)C)sc(/C=N/Nc2ccccc2)c1-c1ccc(Cl)cc1,"inconclusive [inhibitor, single point]",–
N#Cc1cc2c(nc1Cl)CCC2,–,inactive: 0.0685%
O=C(N/N=C/C(Br)=C/c1ccccc1)c1cccnc1,active: 2.59 µM,–
Cc1ccc(C(=O)OCc2nnc(-c3ccccc3)o2)o1,–,inactive: -8.55%
Cc1ccc(C)n1-c1nnc(N2CCC(C(=O)Nc3ccccc3Br)CC2)s1,"inconclusive [inhibitor, single point]",–
CCC1(c2ccccc2)NC(=S)N(c2cccc(C)c2C)N1 (stereo not drawn),"inconclusive [inhibitor, single point]",–
CCc1nc2c(OCc3ccc(OC)cc3)cccn2c1N(C)C(=O)c1ccc(OC)cc1,"inconclusive [inhibitor, single point]",–
COc1ccc2cc(N=Cc3nc(-c4ccc(C)cc4)oc3O)cnc2c1,–,inactive: 7.36%
CC(NC(=O)CCSc1nc(-c2ccco2)cc(C(F)(F)F)n1)c1ccccc1 (stereo not drawn),active: 13 µM,–
CCc1ccc(NC(=O)c2ccc3c(c2)N(Cc2ccc(C)cc2)CCS3)cc1,active: 14.6 µM,–
Cc1cc(OCC(=O)OCC(=O)NCc2ccc3c(c2)OCO3)ccc1Cl,–,inactive: -3.56%
Cc1ccc(-c2noc(CC(=O)c3ccc([N+](=O)[O-])cc3)n2)cc1,"inconclusive [inhibitor, single point]",–
